# Assay results published in PubChem BioAssay AID1454 (National Center for Advancing Translational Sciences (NCATS), 2008).
# About 550 (0.42%) of roughly 130,000 compounds were called active. This list was built around the results that the source calls inconclusive (neither active nor inactive); the mix of calls is not that of the screen. The call rests on the fitted dose curve; in most records, active means well fitted inhibition curve with a large enough effect; inconclusive means small, poorly fitted or top-dose-only effect, or effect the other way; inactive means flat fitted curve, though single readings scatter. No potency is given beside an inconclusive call; the fits are too rough.
# Assay: qHTS Assay for Inhibitors of the ERK Signaling Pathway using a Homogeneous Screening Assay; Stimulation with EGF; further: nearly all actives have a fitted effect of over 55% in size
# Settings: HEK293-V1b, EGF-stimulated phospho-ERK AlphaScreen
# Outline: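 Stably V1b-transfected HEK293 cells; 30 min compound, then EGF 25 nM final for 5 min at 37C; 10 min lysis; phospho-ERK by AlphaScreen after 5 hr beads at room temperature.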
# Potency means the concentration at half of the fitted maximal effect; tags describe the fitted curve by direction and shape.
row,SMILES,Potency
1,Cc1ccc(NCC(O)C(O)C(O)CO)c(N=Nc2ccccc2)c1C (configuration not stated),"inconclusive [inhibitor, partial curve]"
2,O=C(c1ccc(S(=O)(=O)Cc2ccccc2F)c([N+](=O)[O-])c1)N1CCCCCC1,"inconclusive [inhibitor, single point]"
3,CN(C)c1ccc(/C=C/C(=O)c2ccc3c(c2)OCCO3)cc1[N+](=O)[O-],"inconclusive [inhibitor, single point]"
4,CCN1/C(=C\c2ccc3ccccc3[n+]2CC)Sc2cc(C)ccc21,"inconclusive [inhibitor, partial curve, poor fit]"
5,COc1cccc(N/N=C/c2cccc(Br)c2O)c1,"inconclusive [inhibitor, single point]"
6,O=C(NCCCN1CCC(Cc2ccccc2)CC1)c1ccc2nc(N3CCOCC3)sc2c1,"inconclusive [inhibitor, single point]"
7,COc1ccc(C(=O)/C=C/Sc2nc3ccccc3o2)cc1,active: 28.2 µM
8,CCNC(=S)N=Nc1c(O)n(Cc2ccc(Cl)cc2)c2ccccc12,"inconclusive [inhibitor, partial curve, poor fit]"
9,C=C1C(=O)O[C@@H]2C[C@@H](C)[C@@H]3C=CC(=O)[C@@]3(C)[C@@H](OC(C)=O)[C@H]12,"inconclusive [inhibitor, single point]"
10,O=C(O)c1cccc(NC(=S)NC(NC(=O)c2cccc([N+](=O)[O-])c2)C(Cl)(Cl)Cl)c1 (configuration not stated),"inconclusive [inhibitor, partial curve]"
11,O=C(c1ccccc1)c1ccc2nc(N3CCCCC3)c3nncn3c2c1,"inconclusive [inhibitor, single point]"
12,CCc1ccc(Nc2c([N+](=O)[O-])c(=O)oc3ccccc23)cc1,active: 17.8 µM
13,Cc1ccc(NC2=C(NCCO)C(=O)c3ccccc3C2=O)cc1,"inconclusive [inhibitor, single point]"
14,COc1cccc(C(=O)NC(=S)Nc2ccc(N(C)C)cc2)c1,"inconclusive [inhibitor, single point]"
15,COc1ccc(CN2CCN(CC(O)Cn3c4ccccc4c4ccccc43)CC2)cc1 (configuration not stated),"inconclusive [inhibitor, single point]"
16,COc1ccc(N2C(=O)/C(=C3/C=CC=CN3C)SC2=S)cc1,inactive
17,O=C(CC1C(=O)NCCN1Cc1cccc(Oc2ccccc2)c1)NCCc1cnccn1 (configuration not stated),inactive
18,O=C(Cn1cc(SCc2ccccc2Cl)c2ccccc21)N1CCOCC1,inactive
19,O=C(N/N=C/c1cn(-c2ccccc2)nc1-c1ccc2c(c1)OCCO2)c1ccncc1,"inconclusive [inhibitor, partial curve, poor fit]"
20,FC(F)(F)Oc1ccc(NC(=S)NCCCN2CCOCC2)cc1,"inconclusive [inhibitor, single point]"
21,C=CCNC(=O)c1ccc(-n2cccc2)cc1,inactive
22,CC1=Nc2cc(Cl)ccc2Oc2ccccc21,"inconclusive [inhibitor, single point]"
23,COc1ccccc1CSc1ncc(-c2ccc([N+](=O)[O-])cc2)[nH]1,"inconclusive [inhibitor, single point]"

row,SMILES,Potency
1,COc1ccc(NC(=O)N2CCCC3(CCNCC3)C2)cc1,inactive
2,Oc1ccc(Br)cc1-c1cc(-c2ccccc2)n[nH]1,"inconclusive [inhibitor, single point]"
3,CNC(=O)COC(=O)c1ccccc1C(=O)c1ccc(Cl)c([N+](=O)[O-])c1,"inconclusive [inhibitor, single point]"
4,C=CCn1c(SCCN2CCCC2)nc2c([nH]c3ccccc32)c1=O,"inconclusive [inhibitor, single point]"
5,COc1ccc(-c2ccc(SCC(=O)c3cccs3)nn2)cc1,"inconclusive [inhibitor, partial curve, poor fit]"
6,O=C(c1ccco1)N1CCC2(CCN(Cc3ccccc3)CC2)CC1,inactive
7,CC(C)c1onc(C(=O)N2CCN(Cc3ccccc3)CC2)c1[N+](=O)[O-],"inconclusive [inhibitor, partial curve]"
8,Cc1ccc(/C=N/N2CCN(C3c4ccccc4-c4ccccc43)CC2)o1,"inconclusive [inhibitor, partial curve, poor fit]"
9,CC(C)c1cc(C(=O)N2CCN(C(c3ccccc3)c3ccccc3)CC2)no1,inactive
10,CC1=NN(c2ccccc2)C(=O)/C1=C\c1ccc(Br)s1,active: 28.2 µM
11,Cc1ccc(CN2CCN(/N=C\C=C\c3ccccc3)CC2)cc1,"inconclusive [inhibitor, partial curve]"
12,O=[N+]([O-])c1cc(C(F)(F)F)cc([N+](=O)[O-])c1NCCNC(=S)Nc1cccc(F)c1,"inconclusive [inhibitor, single point]"
13,Cc1ccc2cc(C#N)c(N3CCCN(S(=O)(=O)c4ccc(F)cc4)CC3)nc2c1,"inconclusive [activator, partial curve]"
14,O=C1C=CC2=C3c4cc(O)c(O)cc4C[C@]3(O)COC2=C1,"inconclusive [inhibitor, single point]"
15,CCCCCCCCCCCCCCCC[n+]1cccc(C(=O)N(CC)CC)c1,inactive
16,Cc1cccc(N=Cc2c(O)cc(C)oc2=O)c1,"inconclusive [activator, partial curve]"
17,Cc1cc(-c2ccccc2)cc(-c2ccccc2)[n+]1C,inactive
18,COc1cc(NS(=O)(=O)c2ccc(NC(=S)NC(=O)/C=C/c3ccc(F)cc3)cc2)ncn1,inactive
19,CCN(CC)S(=O)(=O)c1ccc(Cl)c(NC(=O)COC(=O)c2cccn2C)c1,inactive
20,Cc1cc(SCC(=O)NCCN2C(=O)CSC2=O)nc2ccccc12,"inconclusive [activator, full curve]"
21,CC(C)C(=O)NC(=S)Nc1ccc(CN2CCOCC2)cc1,inactive
22,O=C(NC1CCCCCC1)C(=S)NC1CCCCC1,"inconclusive [activator, full curve, poor fit]"
23,Cc1cc(C(=O)Nc2ccc(Cl)cc2)c(C)n1-c1ccccc1,"inconclusive [inhibitor, single point]"

row,SMILES,Potency
1,Nc1ccc2c(c1)OC1(CCCC1)O2,"inconclusive [inhibitor, single point]"
2,COc1cc(/C=C2/SC(=S)NC2=O)ccc1OS(=O)(=O)c1ccc(C)cc1,"inconclusive [inhibitor, single point]"
3,CCN(CC)S(=O)(=O)c1cccc(NC(=O)c2ccc(-n3nc(C)cc3C)cc2)c1,"inconclusive [inhibitor, single point]"
4,CCOC(=O)c1cc(C)n(-c2ccc(Cl)cc2)c1C,"inconclusive [inhibitor, single point]"
5,c1ccc(COc2cccc(CNCc3cccnc3)c2)cc1,"inconclusive [inhibitor, partial curve, poor fit]"
6,Cc1ccc(CNC(=O)c2nnc(Cc3ccc(Cl)cc3)o2)cc1,"inconclusive [inhibitor, single point]"
7,COc1ccc(-n2cnc(N)c2C(=O)c2cccc([N+](=O)[O-])c2)cc1,inactive
8,Oc1nc(Nc2ccc(Cl)cc2Cl)sc1/C=C1\C=Nc2ccccc21,"inconclusive [inhibitor, single point]"
9,COc1ccc(-c2nc3cnc(N4CCN(C)CC4)nc3n(CCC#N)c2=O)cc1,"inconclusive [activator, single point]"
10,Cc1sc(NC(=O)c2ccco2)c(CN2CCN(Cc3ccccc3)CC2)c1C,"inconclusive [inhibitor, single point]"
11,Cc1nc2ccccn2c1C(=O)N/N=C/c1cc(C)n(-c2ccc(Br)cc2)c1C,"inconclusive [inhibitor, single point]"
12,Nc1c2ccccc2nc2ccccc12,inactive
13,COc1cccc(Nc2ncc3nc(-c4ccccc4)c(=O)n(C[C@H]4CCCO4)c3n2)c1,"inconclusive [activator, partial curve]"
14,CN1CCC(=C2c3ccccc3Sc3ccccc32)CC1,inactive
15,Cc1nc(N2CCN(C(=O)c3ccco3)CC2)c2c3c(sc2n1)CCCC3,"inconclusive [inhibitor, single point]"
16,CC(C)C[C@H](NC(=O)c1nc[nH]c1C(=O)NC1CCN(C(=O)OC(C)(C)C)CC1)C(=O)OC(C)(C)C,"inconclusive [inhibitor, partial curve]"
17,Cc1cc(C)nc(/N=C(\N)Nc2ccc3c(c2)OCCO3)n1,"inconclusive [activator, full curve, poor fit]"
18,COc1ccccc1NC1=NC(CO)(CO)CS1,"inconclusive [inhibitor, full curve, poor fit]"
19,FC(F)(F)c1cnc(-c2cnc(-c3ccccn3)nc2)c(Cl)c1,"inconclusive [inhibitor, partial curve]"
20,O=C(Nc1ccc(Cc2ccncc2)cc1)c1ccc(S(=O)(=O)N2CCCC2)cc1,"inconclusive [inhibitor, single point]"
21,COc1cccc(OC)c1C(=O)NC(=S)Nc1ccc(S(=O)(=O)Nc2nccs2)cc1,"inconclusive [inhibitor, single point]"
